The text below walks through data of PMC4336329 (PLoS ONE, 2015).

Screen size: about 310,000 compounds; about 14,000 (4.5%) showed an effect of 50% or more. Effects have a minus sign here. The list shows a part of the results.
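Also: peak tail current of the secondary pulse compared with the same well before compound.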

Sequence of human ether-à-go-go-related gene (hERG) potassium channel (Q12809 whole entry, looked up): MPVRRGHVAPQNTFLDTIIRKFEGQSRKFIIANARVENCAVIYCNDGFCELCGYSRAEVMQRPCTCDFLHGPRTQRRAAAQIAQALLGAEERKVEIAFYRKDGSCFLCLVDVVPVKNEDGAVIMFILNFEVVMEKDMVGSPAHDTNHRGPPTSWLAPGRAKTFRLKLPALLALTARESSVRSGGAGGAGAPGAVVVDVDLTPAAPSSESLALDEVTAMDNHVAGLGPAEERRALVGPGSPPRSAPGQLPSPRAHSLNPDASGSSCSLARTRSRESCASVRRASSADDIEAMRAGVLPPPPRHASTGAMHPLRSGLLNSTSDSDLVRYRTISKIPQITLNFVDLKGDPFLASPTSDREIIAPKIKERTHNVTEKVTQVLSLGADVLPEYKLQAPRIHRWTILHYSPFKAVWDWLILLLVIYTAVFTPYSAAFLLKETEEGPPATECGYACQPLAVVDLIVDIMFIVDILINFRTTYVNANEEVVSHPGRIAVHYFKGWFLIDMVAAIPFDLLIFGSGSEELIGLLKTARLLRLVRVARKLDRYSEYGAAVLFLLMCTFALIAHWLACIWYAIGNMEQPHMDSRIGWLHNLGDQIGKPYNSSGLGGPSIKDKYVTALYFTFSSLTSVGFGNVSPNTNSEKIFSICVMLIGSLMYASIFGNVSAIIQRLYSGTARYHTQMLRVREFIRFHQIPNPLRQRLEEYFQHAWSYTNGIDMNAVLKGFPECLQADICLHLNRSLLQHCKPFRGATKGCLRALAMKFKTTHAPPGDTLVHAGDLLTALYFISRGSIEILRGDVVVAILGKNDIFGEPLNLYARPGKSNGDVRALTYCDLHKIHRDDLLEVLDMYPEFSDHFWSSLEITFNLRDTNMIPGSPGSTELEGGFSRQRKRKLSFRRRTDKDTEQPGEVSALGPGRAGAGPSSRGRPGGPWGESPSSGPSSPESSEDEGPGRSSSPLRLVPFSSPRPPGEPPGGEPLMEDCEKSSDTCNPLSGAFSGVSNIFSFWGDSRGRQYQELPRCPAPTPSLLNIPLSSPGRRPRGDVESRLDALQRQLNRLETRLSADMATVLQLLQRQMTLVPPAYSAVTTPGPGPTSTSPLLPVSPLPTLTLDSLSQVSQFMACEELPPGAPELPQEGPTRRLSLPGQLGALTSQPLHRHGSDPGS

The assay has as its target human ether-à-go-go-related gene (hERG) potassium channel (human, UniProt Q12809). In words: primary screen, population patch clamp on CHO cells stably expressing hERG.
Take `COc1cc(NS(=O)(=O)c2ccc(OC)c(OC)c2)cc(OC)c1`: the “hERG current change (%, negative = inhibition) at 10uM” value was -7.03%.

For `Cn1c(C(=O)N[C@@H](Cc2ccccc2)C(=O)NCCC(=O)O)cc2cc(Cl)ccc21`, the “hERG current change (%, negative = inhibition) at 10uM” value amounted to 0.651%.

For the compound `O=C(Nc1ccc(C(F)(F)F)cc1)c1ccc2nc[nH]c2c1`, the “hERG current change (%, negative = inhibition) at 10uM” value was 6.65%. The same measure for `Cc1cccc(CC(=O)N2CCN(C(=O)c3ccco3)CC2)c1`: 2.39%; for `Cc1[nH]c2ccccc2c1C(=O)CN1C(=O)C(=O)N(CCC2=CCCCC2)C1=O`: -11%; for `Oc1ccc(N2CCN(C(=S)NCCc3ccccc3)CC2)cc1`: -2.75%. The same measure for `Cc1cnc(CN(C)Cc2c(C(=O)N3CCc4ccccc4C3)nc3ccc(Cl)cn23)[nH]1`: -62.6%. The same measure for `CCN(CC(=O)Nc1ccc(NC(C)=O)cc1)C(=O)CSC(=S)N1CCCC1`: 12.2%. Take `COCCN(C(=O)CN1CCN(S(=O)(=O)c2ccc(F)cc2)CC1)c1c(N)n(Cc2ccccc2)c(=O)[nH]c1=O`: the “hERG current change (%, negative = inhibition) at 10uM” value worked out at 20.5%. The same measure for `Cc1c(NC(=O)c2ccccc2NS(=O)(=O)c2ccc(Br)cc2)c(=O)n(-c2ccccc2)n1C`: -1.11%. Turning to `COc1ccc(/C=N/NC(=O)c2c(C)nc3ccccn23)cc1[N+](=O)[O-]`, the “hERG current change (%, negative = inhibition) at 10uM” value is recorded as 6.86%. The same measure for `CC(/C=N/n1c(-c2cccnc2)n[nH]c1=S)=C\c1ccccc1`: 2.43%; for `CCCC(=O)N(c1ccc(C(=O)O)cc1)c1nc(-c2ccccc2)c(C)s1`: 14.2%.

Regarding `O=C(CNC(=O)N1CC(=O)Nc2ccccc21)NCCc1ccc(Cl)cc1`, the “hERG current change (%, negative = inhibition) at 10uM” value was 1.94%. The same measure for `CCOC(=O)c1c(S(=O)(=O)NCC(=O)Nc2cccc(F)c2)c(C)n(C)c1C`: 7.4%; for `CO/N=C/c1ccc(N2CCOCC2)c([N+](=O)[O-])c1`: 0.313%. The figure for `CCn1cc(CNC(=O)CCc2ccc(OC)cc2)cn1` is 2.22%; for `COc1cc(NC(=O)c2cccc(Cl)c2)c(OC)cc1NC(=O)CN1CCCCC1` it is -1.89%; for `CC(NC(=O)c1ccc2c(c1)OCCO2)c1ccc(S(N)(=O)=O)cc1` (centres unmarked) it is 29.2%.

Consider `COc1ccc(N2CCN(C(=O)CSc3nnnn3-c3ccc4c(c3)OCCO4)CC2)cc1`, for which the “hERG current change (%, negative = inhibition) at 10uM” value is -17.2%. The figure for `Cc1cccc(NC(=O)NNC(=O)c2c(Cl)c(C)nn2C)c1` is 6.13%.

Regarding `Cc1ccnc(NC(=O)c2cc(S(=O)(=O)NCc3ccccc3)ccc2C)c1`, the “hERG current change (%, negative = inhibition) at 10uM” value is listed as -17.4%. Consider `O=S(=O)(c1ccc2c(c1)OCCO2)N1CCN(Cc2ccc3c(c2)OCO3)CC1`, for which the “hERG current change (%, negative = inhibition) at 10uM” value is on record as 3.98%. The same measure for `O=c1cccc2n1CC1CNCC2C1` (centres unmarked): 30%. The figure for `COc1ccc(NCC(O)COc2ccc(C(C)(C)C)cc2)cc1` (centres unmarked) is 3.63%. The figure for `O=C(Nc1ccon1)Nc1cccc(Cl)c1Cl` is 7.46%. Consider `CC(C)(C)c1ccc(C(=O)NNC(=O)c2ccc(Cl)cc2)cc1`, for which the “hERG current change (%, negative = inhibition) at 10uM” value stood at 9.85%. The same measure for `COc1ccc(C(C(=O)NC2CCCC2)N(Cc2ccc(F)cc2)C(=O)c2ccn[nH]2)cc1OC` (centres unmarked): 3.61%; for `COc1cc(C2C(C#N)=C(C)NC3=C2C(=O)c2ccccc23)cc(OC)c1OC` (centres unmarked): 17.1%. The figure for `Cc1ccc(C)c(/C(O)=C2/C(=O)C(=O)N(CCN3CCOCC3)C2c2ccc(C)o2)c1` (centres unmarked) is -2.72%; for `COc1ccc(NC(=O)CNS(=O)(=O)c2cccc3nonc23)c(OC)c1` it is -5.63%.

On to `CN1c2ccsc2C(O)=C(C(=O)Nc2ccccc2)S1(=O)=O`, for which the “hERG current change (%, negative = inhibition) at 10uM” value is listed as 9.57%. The figure for `Cc1n[nH]c(C)c1CCN(C)C(=O)C1CCC(=O)N(CC2CCCCC2)C1` (centres unmarked) is 15.1%; for `COCCNC(=O)c1cc2nc(-c3ccc(F)cc3)cc(C(F)(F)F)n2n1` it is 7.95%; for `CC(NC(=O)Cn1c(=O)oc2cc(S(=O)(=O)N3CCCC3)ccc21)c1ccccc1` (centres unmarked) it is 3.17%.

Take `C[C@H](NC(=O)C1CCN(S(=O)(=O)c2ccccc2)CC1)C(=O)NCc1ccccc1`: the “hERG current change (%, negative = inhibition) at 10uM” value is reported as 6.27%.

As for `CCCCCCCN1CCC(=O)N([C@H](CO)CC(C)C)CC1`, the “hERG current change (%, negative = inhibition) at 10uM” value is reported as -63%.

Turning to `Cn1c(=O)c2c(ncn2CC(O)CNc2cccc(Cl)c2)n(C)c1=O` (centres unmarked), the “hERG current change (%, negative = inhibition) at 10uM” value is recorded as -15.8%. The same measure for `COc1ccc(CCN2CC(C(=O)OCC(=O)Nc3c(C)nn(-c4ccccc4)c3C)CC2=O)cc1OC` (centres unmarked): 0.109%; for `COc1ccc(C(C)N2CC34C=CC(O3)C(C(=O)O)C4C2=O)cc1` (centres unmarked): 8.42%; for `O=C(Cc1ccccc1)NCC(=O)N/N=C/c1ccc(C(=O)O)cc1`: 12.3%. The figure for `CN(C(=O)c1cc(C(=O)N(C)c2ccccc2)cc([N+](=O)[O-])c1)c1ccccc1` is -14%; for `CCOCCCNS(=O)(=O)Cc1ccccc1` it is 0.149%; for `Cc1ccccc1C(=O)Nc1ccnn1C1CCN(C2CCSCC2)CC1` it is -49.5%. The same measure for `CCOC(=O)c1ccc(NC(=O)c2nn(CC)cc2Br)cc1`: 5.3%; for `COc1ccc(CCNC(=O)CSc2nc3ccsc3c(=O)n2CC2CCC(C(=O)O)CC2)cc1OC` (centres unmarked): 13.5%. As to `CC(C)CCN(C(=O)CCSc1ccc(F)cc1)c1c(N)n(Cc2ccccc2)c(=O)[nH]c1=O`, the “hERG current change (%, negative = inhibition) at 10uM” value came out at 20%. `Cc1cccc(OCc2n[nH]c(=S)o2)c1C`: the “hERG current change (%, negative = inhibition) at 10uM” value came out at 6.03%. The figure for `CCn1cc(C(=O)NCCCN2CCC(C)CC2)c(=O)c2cc(S(=O)(=O)N(C)C3CCCCC3)ccc21` is -80%; for `O=C(Nc1cccc(F)c1)N1CCC(c2ccccc2)CC1` it is -9.33%; for `CC1C/C(=N/Nc2ccc([N+](=O)[O-])cc2[N+](=O)[O-])CC(C)(C)C1` (centres unmarked) it is 0.74%. The same measure for `CCOC(=O)C1=C(C)N=c2s/c(=C\c3ccc(OCC(=O)O)c(OC)c3)c(=O)n2C1c1ccc(OC)cc1` (centres unmarked): 13.7%; for `O=c1[nH]n2c(-c3ccccc3)nc(O)c2c2ccccc12`: -25.2%.
